# Some of the results follow.
# B1: HPAIIITrx (Helix pomatia), Q1KM18 (protein)
# chain: MLFVTIISLGLLAIVHGQCALKTIAFSAAIDREQTFDANQVVIYDIVITNHGNAYDNSTGLFTAPVDGMYSFQLNLLTIKEKEGWLELVHNGQLKVSVYAKQDSTYDSSSNSVIIKMKEGDRVNVRAHKKSGLFGRDDELYNTFSGHFLSGL
# Legend:
# Assay in all cases: glycan array binding signal (z-score within array); higher = stronger binding
# Conditions in all cases: glycan notation: IUPAC condensed, linker removed
# Fuc(b1-3)GlcNAc = biological target: Fuc(b1-3)GlcNAc
# Method in brief: (§1)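 The binding signal is a Z-score computed within each array. Data were drawn from 3228 arrays in the Consortium for Functional Glycomics database, restricted to those with a known protein sequence. Scores were averaged over arrays of the same protein sequence at different concentrations or buffers, and over linkers, and negative values can be taken as non-binding.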
# Gal(a1-2)Gal = biological target: Gal(a1-2)Gal
# Method in brief: as §1
# Gal(a1-3)Gal = biological target: Gal(a1-3)Gal
# Method in brief: as §1
# Gal(a1-3)Gal(b1-3)GlcNAc = biological target: Gal(a1-3)Gal(b1-3)GlcNAc
# Method in brief: as §1
# [1] = biological target: Gal(a1-3)Gal(b1-3)GlcNAc(b1-2)Man
# Method in brief: as §1
# [2] = biological target: Gal(a1-3)Gal(b1-3)GlcNAc(b1-2)Man(a1-3)[Gal(a1-3)Gal(b1-3)GlcNAc(b1-2)Man(a1-6)]Man(b1-4)GlcNAc(b1-4)GlcNAc
# Method in brief: as §1
# [3] = biological target: Gal(a1-3)Gal(b1-3)GlcNAc(b1-3)GalNAc
# Method in brief: as §1
# [4] = biological target: Gal(a1-3)Gal(b1-3)GlcNAc(b1-6)GalNAc
# Method in brief: as §1
# [5] = biological target: Gal(a1-3)Gal(b1-3)[Fuc(a1-4)]GlcNAc(b1-2)Man(a1-3)[Gal(a1-3)Gal(b1-3)[Fuc(a1-4)]GlcNAc(b1-2)Man(a1-6)]Man(b1-4)GlcNAc(b1-4)GlcNAc
# Method in brief: as §1
# Gal(a1-3)Gal(b1-4)Glc = biological target: Gal(a1-3)Gal(b1-4)Glc
# Method in brief: as §1
# Gal(a1-3)Gal(b1-4)GlcNAc = biological target: Gal(a1-3)Gal(b1-4)GlcNAc
# Method in brief: as §1
# [6] = biological target: Gal(a1-3)Gal(b1-4)GlcNAc(b1-2)Man
# Method in brief: as §1
# [7] = biological target: Gal(a1-3)Gal(b1-4)GlcNAc(b1-2)Man(a1-3)[Gal(a1-3)Gal(b1-4)GlcNAc(b1-2)Man(a1-6)]Man(b1-4)GlcNAc(b1-4)GlcNAc
# Method in brief: as §1
# [8] = biological target: Gal(a1-3)Gal(b1-4)GlcNAc(b1-3)GalNAc
# Method in brief: as §1
# [9] = biological target: Gal(a1-3)Gal(b1-4)GlcNAc(b1-6)GalNAc
# Method in brief: as §1
# [10] = biological target: Gal(a1-3)Gal(b1-4)[Fuc(a1-3)]GlcNAc
# Method in brief: as §1
# [11] = biological target: Gal(a1-3)Gal(b1-4)[Fuc(a1-3)]GlcNAc(b1-2)Man(a1-3)[Gal(a1-3)Gal(b1-4)[Fuc(a1-3)]GlcNAc(b1-2)Man(a1-6)]Man(b1-4)GlcNAc(b1-4)GlcNAc
# Method in brief: as §1
# Gal(a1-3)GalNAc = biological target: Gal(a1-3)GalNAc
# Method in brief: as §1
# [12] = biological target: Gal(a1-3)[Gal(a1-4)]Gal(b1-4)GlcNAc
# Method in brief: as §1
# [13] = biological target: Gal(a1-4)Gal(b1-3)GlcNAc(b1-2)Man(a1-3)[Gal(a1-4)Gal(b1-3)GlcNAc(b1-2)Man(a1-6)]Man(b1-4)GlcNAc(b1-4)GlcNAc
# Method in brief: as §1
# Gal(a1-4)Gal(b1-4)Glc = biological target: Gal(a1-4)Gal(b1-4)Glc
# Method in brief: as §1
# Gal(a1-4)Gal(b1-4)GlcNAc = biological target: Gal(a1-4)Gal(b1-4)GlcNAc
# Method in brief: as §1
# [14] = biological target: Gal(a1-4)Gal(b1-4)GlcNAc(b1-2)Man(a1-3)[Gal(a1-4)Gal(b1-4)GlcNAc(b1-2)Man(a1-6)]Man(b1-4)GlcNAc(b1-4)GlcNAc
# Method in brief: as §1
# [15] = biological target: Gal(a1-4)Gal(b1-4)GlcNAc(b1-3)Gal(b1-4)Glc
# Method in brief: as §1
# Gal(a1-4)GlcNAc = biological target: Gal(a1-4)GlcNAc
# Method in brief: as §1
# Gal(a1-6)Glc = biological target: Gal(a1-6)Glc
# Method in brief: as §1
# Gal(b1-2)Gal = biological target: Gal(b1-2)Gal
# Method in brief: as §1
# Gal(b1-3)Gal = biological target: Gal(b1-3)Gal
# Method in brief: as §1
# Gal(b1-3)Gal(b1-4)GlcNAc = biological target: Gal(b1-3)Gal(b1-4)GlcNAc
# Method in brief: as §1
# [16] = biological target: Gal(b1-3)Gal(b1-4)GlcNAc(b1-2)Man(a1-3)[Gal(b1-3)Gal(b1-4)GlcNAc(b1-2)Man(a1-6)]Man(b1-4)GlcNAc(b1-4)GlcNAc
# Method in brief: as §1
# Gal(b1-3)GalNAc = biological target: Gal(b1-3)GalNAc
# Method in brief: as §1
# [17] = biological target: Gal(b1-3)GalNAc(a1-3)[Fuc(a1-2)]Gal(b1-4)Glc
# Method in brief: as §1
# [18] = biological target: Gal(b1-3)GalNAc(a1-3)[Fuc(a1-2)]Gal(b1-4)GlcNAc
# Method in brief: as §1
# Gal(b1-3)GalNAc(b1-3)Gal = biological target: Gal(b1-3)GalNAc(b1-3)Gal
# Method in brief: as §1
# [19] = biological target: Gal(b1-3)GalNAc(b1-3)Gal(a1-4)Gal(b1-4)Glc
# Method in brief: as §1
# [20] = biological target: Gal(b1-3)GalNAc(b1-4)Gal(b1-4)Glc
# Method in brief: as §1
# [21] = biological target: Gal(b1-3)GalNAc(b1-4)[Neu5Ac(a2-3)]Gal(b1-4)Glc
# Method in brief: as §1
# Gal(b1-3)GlcNAc = biological target: Gal(b1-3)GlcNAc
# Method in brief: as §1
# [22] = biological target: Gal(b1-3)GlcNAc(a1-3)Gal(b1-4)GlcNAc
# Method in brief: as §1
# [23] = biological target: Gal(b1-3)GlcNAc(a1-6)Gal(b1-4)GlcNAc
# Method in brief: as §1
# Gal(b1-3)GlcNAc(b1-2)Man = biological target: Gal(b1-3)GlcNAc(b1-2)Man
# Method in brief: as §1
# [24] = biological target: Gal(b1-3)GlcNAc(b1-2)Man(a1-3)[Gal(b1-3)GlcNAc(b1-2)Man(a1-6)]Man(b1-4)GlcNAc(b1-4)GlcNAc
# Method in brief: as §1
# [25] = biological target: Gal(b1-3)GlcNAc(b1-2)Man(a1-3)[Gal(b1-3)GlcNAc(b1-2)Man(a1-6)]Man(b1-4)GlcNAc(b1-4)[Fuc(a1-6)]GlcNAc
# Method in brief: as §1
# [26] = biological target: Gal(b1-3)GlcNAc(b1-2)Man(a1-3)[GlcNAc(b1-4)][Gal(b1-3)GlcNAc(b1-2)Man(a1-6)]Man(b1-4)GlcNAc(b1-4)GlcNAc
# Method in brief: as §1
# [27] = biological target: Gal(b1-3)GlcNAc(b1-2)[Gal(b1-3)GlcNAc(b1-6)]Man(a1-6)[Gal(b1-3)GlcNAc(b1-2)Man(a1-3)]Man(b1-4)GlcNAc(b1-4)GlcNAc
# Method in brief: as §1
binder,measurement,setting,value
B1,glycan array binding signal (z-score),Fuc(b1-3)GlcNAc,-0.256
same,glycan array binding signal (z-score),Gal(a1-2)Gal,-0.233
same,glycan array binding signal (z-score),Gal(a1-3)Gal,-0.201
same,glycan array binding signal (z-score),Gal(a1-3)Gal(b1-3)GlcNAc,0.863
same,glycan array binding signal (z-score),[1],-0.239
same,glycan array binding signal (z-score),[2],0.146
same,glycan array binding signal (z-score),[3],-0.137
same,glycan array binding signal (z-score),[4],-0.384
same,glycan array binding signal (z-score),[5],0.023
same,glycan array binding signal (z-score),Gal(a1-3)Gal(b1-4)Glc,-0.155
same,glycan array binding signal (z-score),Gal(a1-3)Gal(b1-4)GlcNAc,-0.371
same,glycan array binding signal (z-score),[6],-0.173
same,glycan array binding signal (z-score),[7],-0.284
same,glycan array binding signal (z-score),[8],-0.286
same,glycan array binding signal (z-score),[9],-0.431
same,glycan array binding signal (z-score),[10],-0.392
same,glycan array binding signal (z-score),[11],0.305
same,glycan array binding signal (z-score),Gal(a1-3)GalNAc,-0.333
same,glycan array binding signal (z-score),[12],-0.218
same,glycan array binding signal (z-score),[13],-0.015
same,glycan array binding signal (z-score),Gal(a1-4)Gal(b1-4)Glc,-0.054
same,glycan array binding signal (z-score),Gal(a1-4)Gal(b1-4)GlcNAc,-0.262
same,glycan array binding signal (z-score),[14],-0.229
same,glycan array binding signal (z-score),[15],-0.227
same,glycan array binding signal (z-score),Gal(a1-4)GlcNAc,-0.387
same,glycan array binding signal (z-score),Gal(a1-6)Glc,-0.164
same,glycan array binding signal (z-score),Gal(b1-2)Gal,0.163
same,glycan array binding signal (z-score),Gal(b1-3)Gal,-0.21
same,glycan array binding signal (z-score),Gal(b1-3)Gal(b1-4)GlcNAc,-0.397
same,glycan array binding signal (z-score),[16],-0.404
same,glycan array binding signal (z-score),Gal(b1-3)GalNAc,-0.149
same,glycan array binding signal (z-score),[17],-0.608
same,glycan array binding signal (z-score),[18],-0.475
same,glycan array binding signal (z-score),Gal(b1-3)GalNAc(b1-3)Gal,-0.35
same,glycan array binding signal (z-score),[19],-0.323
same,glycan array binding signal (z-score),[20],-0.253
same,glycan array binding signal (z-score),[21],-0.37
same,glycan array binding signal (z-score),Gal(b1-3)GlcNAc,-0.149
same,glycan array binding signal (z-score),[22],-0.471
same,glycan array binding signal (z-score),[23],-0.46
same,glycan array binding signal (z-score),Gal(b1-3)GlcNAc(b1-2)Man,1.45
same,glycan array binding signal (z-score),[24],-0.388
same,glycan array binding signal (z-score),[25],-0.301
same,glycan array binding signal (z-score),[26],-0.29
same,glycan array binding signal (z-score),[27],-0.132
